According to PMC4336329 (PLoS ONE, 2015):
In all, about 310,000 compounds went through this assay and about 14,000 (4.5%) showed an effect of 50% or more. The effect is printed as a negative number. Some of the results follow.

The compounds below were run against human ether-à-go-go-related gene (hERG) potassium channel (human, UniProt Q12809) (assay: primary screen, population patch clamp on CHO cells stably expressing hERG).
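Further: peak tail current of the secondary pulse compared with the same well before compound.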

Sequence of human ether-à-go-go-related gene (hERG) potassium channel (Q12809 whole entry, looked up): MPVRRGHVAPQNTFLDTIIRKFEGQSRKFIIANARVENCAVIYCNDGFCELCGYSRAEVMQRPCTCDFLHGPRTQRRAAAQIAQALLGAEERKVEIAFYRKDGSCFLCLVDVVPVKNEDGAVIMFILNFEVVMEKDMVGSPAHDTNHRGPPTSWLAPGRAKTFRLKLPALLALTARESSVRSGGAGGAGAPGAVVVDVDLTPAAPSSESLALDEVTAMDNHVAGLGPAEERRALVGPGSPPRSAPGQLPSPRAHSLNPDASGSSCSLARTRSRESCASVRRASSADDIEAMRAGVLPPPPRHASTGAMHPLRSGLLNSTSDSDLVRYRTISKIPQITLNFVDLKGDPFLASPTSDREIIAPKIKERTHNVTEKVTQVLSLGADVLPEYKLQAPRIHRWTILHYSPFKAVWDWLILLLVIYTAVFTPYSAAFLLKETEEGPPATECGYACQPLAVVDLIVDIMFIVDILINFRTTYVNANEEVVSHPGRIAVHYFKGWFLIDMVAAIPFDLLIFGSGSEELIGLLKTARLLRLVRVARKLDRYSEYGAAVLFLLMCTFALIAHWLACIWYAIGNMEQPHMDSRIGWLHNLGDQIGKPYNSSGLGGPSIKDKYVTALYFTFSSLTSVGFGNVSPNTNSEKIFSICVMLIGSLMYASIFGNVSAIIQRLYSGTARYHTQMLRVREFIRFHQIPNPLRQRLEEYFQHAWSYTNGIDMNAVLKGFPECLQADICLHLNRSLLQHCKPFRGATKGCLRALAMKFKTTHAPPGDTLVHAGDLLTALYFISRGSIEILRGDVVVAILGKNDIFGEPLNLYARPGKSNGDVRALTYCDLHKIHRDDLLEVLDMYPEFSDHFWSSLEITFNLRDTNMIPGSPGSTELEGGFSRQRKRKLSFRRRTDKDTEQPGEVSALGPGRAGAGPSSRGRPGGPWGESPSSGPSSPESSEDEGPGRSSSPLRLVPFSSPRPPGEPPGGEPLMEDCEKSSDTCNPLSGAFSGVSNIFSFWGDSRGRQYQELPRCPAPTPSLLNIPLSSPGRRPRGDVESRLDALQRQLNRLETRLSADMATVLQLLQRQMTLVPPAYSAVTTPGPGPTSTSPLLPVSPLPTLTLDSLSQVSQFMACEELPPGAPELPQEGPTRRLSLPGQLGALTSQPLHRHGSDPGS

Structure (SMILES)	hERG current change (%, negative = inhibition) at 10uM
CCOc1ccc2oc(C(=O)NN3C(C)CCCC3C)c(C)c2c1 (stereo not drawn)	12.3%
CCOC(=O)c1sc2nc(C(C)C)c3c(c2c1N)CCC3	-4.78%
COc1ccc(NC(=O)CSc2cc(C)ccc2C)cn1	35.5%
CN1CCN(S(=O)(=O)c2cccc(C(=O)Nc3cc(C(N)=O)cc(C(N)=O)c3)c2)CC1	4.71%
Nc1nc(Cl)nc2c1ncn2[C@H]1C[C@H](O)[C@@H](CO)O1	7.6%
CCCn1c(=O)[nH]c(=O)c2c1nc(-c1ccc(OC(F)F)cc1)n2CCN1CCOCC1	-21.6%
CNC(=S)NCc1ccc2[nH]c(C)cc2c1	31.9%
Br.O=C(Cn1c(NCCCO)nc2ccccc21)c1ccc(F)cc1	-9.54%
CC(C)CNc1nc(N)c([N+](=O)[O-])c(NCc2ccccc2)n1	-3.8%
CC(=O)Nc1ccc(N2C(=O)CC(Sc3nc4ccccc4s3)C2=O)cc1 (stereo not drawn)	13.7%
COc1cccc(C2CC(c3cccc(OC)c3)n3nc(N)nc3N2)c1 (stereo not drawn)	-4.11%
CC(=O)c1cccc(N(CC(=O)Nc2ccccc2F)S(C)(=O)=O)c1	20.7%
CC(C)(C)NS(=O)(=O)c1ccc(OCC(=O)N2CCN(Cc3ccccc3)CC2)cc1	-3.78%
O=C(O)c1ccc(OCc2occc2C(=O)O)cc1	5.18%
COC(=O)C1C2C=CC3(CN(Cc4ccco4)C(=O)C13)O2 (stereo not drawn)	11.5%
COc1cc(CNCc2ccc(SC)cc2)cc(OC)c1	-14.9%
CCc1cc2c(=O)c(-c3nc4ccccc4[nH]3)coc2c(CN2CCCCC2)c1O	-21.6%
COc1ccc(OC)c(-n2c(O)c(C=NCc3ccc4c(c3)OCO4)c(=O)[nH]c2=O)c1	-13%
COc1ccc(S(=O)(=O)N2CCC(C(=O)NC3CCCC3)CC2)cc1C	7.14%

Structure (SMILES)	hERG current change (%, negative = inhibition) at 10uM
CCCOc1ccc(NC(=O)c2cc3cc(C)ccc3[nH]2)cc1	16.8%
Nc1ccccc1Nc1ccncc1[N+](=O)[O-]	20%
O=C(NN/C(=N/S(=O)(=O)c1ccc(Cl)cc1)c1ccccc1)c1cccc(Cl)c1	0.271%
C[C@H]1CCC(=O)N([C@H](CSc2ccc(Br)cc2)Cc2ccccc2)CC1	7.31%
CCCc1[nH]nc2c1C(CCc1ccccc1)C(C#N)=C(N)O2 (stereo not drawn)	-13.2%
Cc1noc(C)c1COc1ccc(CC(=O)NCc2ccccc2)cc1	-3.71%
COC(=O)c1ccc(N(C(=O)c2ccco2)C(C(=O)NC2CCCC2)c2ccco2)cc1 (stereo not drawn)	-16.6%
CC(=O)O[C@@H]1[C@H](OC(=O)CC(C)C)c2c(ccc3ccc(=O)oc23)OC1(C)C	-67.2%
COc1cc(Cl)c(S(=O)(=O)NCCCN2CCOCC2)cc1Cl	-4.68%
CSc1ncc(C(=O)Nc2cccc(S(N)(=O)=O)c2)n1-c1ccccc1	30.7%
Cc1ccc(-c2nnn(CC(=O)N(c3ccccc3F)C(C(=O)NCC3CCCO3)c3c[nH]c4ccccc34)n2)cc1 (stereo not drawn)	0.81%
N#CC1=C(N)Oc2n[nH]c(-c3ccncc3)c2C1c1ccsc1 (stereo not drawn)	-14.6%
O=C(NCc1cccnc1)C(=O)NCC1CCCO1 (stereo not drawn)	21.5%
CCn1cc(CN2CCCC(C(=O)c3sccc3C)C2)cn1 (stereo not drawn)	-27.3%
CC(=O)Nc1ccc(S(=O)(=O)Nc2cc(C)cn(Cc3ccc(C)cc3)c2=O)cc1	2.09%
O=C(O)c1cc2c(o1)CCC/C2=N\O	15.6%
CC1(C)CN(c2ccc(-c3ccnc4ncnn34)cc2)C1=O	13.6%
CCN(C(=O)CSc1nc2cc(C(F)(F)F)ccc2n1Cc1ccccc1)C1CCS(=O)(=O)C1 (stereo not drawn)	-31.7%
CCOc1cc(C(=O)NCCOC)ccc1OC	1.01%

Structure (SMILES)	hERG current change (%, negative = inhibition) at 10uM
COc1ccc(CNCC(O)(c2ccccc2)c2ccc(F)cc2)cc1 (stereo not drawn)	-73.3%
CCOc1ccc2nc(N3CCC(C(=O)N4CCN(c5ccccn5)CC4)CC3)sc2c1	-45.7%
CC1CC(C)CN(CCOc2cccc3ccccc23)C1 (stereo not drawn)	-26.8%
Cc1ccccc1NC1=C(Cl)C(=O)OC1NC(=O)c1ccccc1 (stereo not drawn)	8.94%
CCC(=O)Nc1cccc(-c2cn3ccccc3n2)c1	5.99%
Cc1cccnc1NC(=S)NCc1ccco1	-2.97%
Cc1cc(OC(=O)C(c2ccccc2)c2ccccc2)c([N+](=O)[O-])c(=O)[nH]1	22.4%
Nc1nc2nccc(-c3ccccn3)n2n1	9.01%
O=C1COc2ccc(N3C(=O)c4ccccc4C3=O)cc2N1	27.5%
COc1ccccc1CCNC(=O)CCNS(=O)(=O)c1ccc(NC(C)=O)cc1	11.9%
Cc1ccc(C(=O)COC(=O)c2cccc(NC(=O)c3ccc([N+](=O)[O-])cc3[N+](=O)[O-])c2)cc1	5.39%
Cc1cccc(C(C)C)c1NC(=O)C1CN(S(=O)(=O)c2ccccc2)CCN1S(=O)(=O)c1ccccc1 (stereo not drawn)	5.83%
CCc1nnc(N/N=C/c2ccccc2Cl)n1N.Cl	9.59%
CC(C)(C)c1cc(NC(=O)c2ccc(OC3CCCC3)cc2)no1	14.2%
CC1CCN(C(=O)c2cc(-c3ccco3)on2)CC1	-9.01%
O=C(NCc1ccccc1F)C1CCCN1C(=O)Nc1cccc(F)c1 (stereo not drawn)	2.32%
O=C(O)C1CC=CCC1C(=O)c1ccccc1 (stereo not drawn)	-0.335%
Cc1cc(C)nc(NC(=O)c2ccc(Br)s2)n1	14.5%
CCN(CC)C(=O)Cn1cc(S(=O)(=O)CC(=O)N2CCOCC2)c2ccccc21	6.33%
